Among all 410,000 compounds or so, about 6,400 (1.6%) were called active. This list was built around the results that the source calls inconclusive (neither active nor inactive); the mix of calls is not that of the screen. Calls come from the whole dose curve; as a rule, active = well fitted inhibition curve with a large enough effect; inconclusive = small, poorly fitted or top-dose-only effect; inactive = no such curve, though single readings can be large or run the other way. No potency is given beside an inconclusive call; the fits are too rough.
target: Glucagon-like peptide 1 receptor (Homo sapiens) (UniProt P43220); assay: qHTS of GLP-1 Receptor Inverse Agonists (Inhibition Mode); conditions: HEK293 GLP-1R CRE-luciferase, luminescence, 24 h, GLP-1R form is constitutively active; series mostly up to 38.3 µM; note: nearly all actives have a fitted effect of over 55% in size
UniProt P43220, sequence (P43220 whole entry, looked up): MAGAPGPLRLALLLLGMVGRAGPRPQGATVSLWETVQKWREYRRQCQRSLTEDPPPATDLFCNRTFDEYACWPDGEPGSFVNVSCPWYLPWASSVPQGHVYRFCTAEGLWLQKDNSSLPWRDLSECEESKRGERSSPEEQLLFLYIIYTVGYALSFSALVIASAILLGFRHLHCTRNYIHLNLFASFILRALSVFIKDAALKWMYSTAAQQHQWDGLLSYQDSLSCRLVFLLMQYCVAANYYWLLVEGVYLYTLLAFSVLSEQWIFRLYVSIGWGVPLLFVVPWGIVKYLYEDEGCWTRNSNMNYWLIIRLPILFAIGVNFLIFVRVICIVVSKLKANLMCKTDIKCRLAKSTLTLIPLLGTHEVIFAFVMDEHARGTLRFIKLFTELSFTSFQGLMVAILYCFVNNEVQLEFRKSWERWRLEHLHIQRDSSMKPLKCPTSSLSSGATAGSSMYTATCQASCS
Method in brief: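 Luminescence readout: a drop in cAMP-driven luciferase signal flags inverse agonism at a constitutively active GLP-1R stably expressed in HEK293. Compound exposure lasted 24 hr at 37 deg C, 5% CO2.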
Potency is the fitted concentration of half-maximal effect; tags give direction and shape of the fitted curve.

Q: With `COc1ccc(N(CC(=O)Nc2ccc(F)cc2F)S(=O)(=O)c2c(C)nn(C)c2C)cc1` as the compound, how does the Potency read?
A: inactive

Q: Which Potency does the source give for `C=CCNC(=O)C1CCN(c2cc(C)nc(-c3ccccc3)n2)CC1` here?
A: inactive

Q: Which Potency does the source give for `CN(C)CCN(C(=O)c1ccc(S(=O)(=O)N(C)c2ccccc2)cc1)c1nc2cc3c(cc2s1)OCO3` here?
A: inconclusive [inhibitor, single point]

Q: For `COc1ccc(-c2coc3c(CN4CCCCC4C)c(O)ccc3c2=O)cc1` (centres undefined), which Potency is on record?
A: inconclusive [inhibitor, partial curve, poor fit]

Q: For `Fc1ccc(NC(=S)N2CCN(c3ccccn3)CC2)cc1Cl`, which Potency is on record?
A: inconclusive [inhibitor, partial curve, poor fit]

Q: How did the Potency turn out when `COc1ccc(N(CC(=O)Nc2cc(C)ccc2OC)S(=O)(=O)c2c(C)noc2C)cc1` was run?
A: inconclusive [inhibitor, partial curve, poor fit]

Q: `Cc1ccc2oc(C(=O)Nc3ccc(S(=O)(=O)Nc4ncccn4)cc3)cc(=O)c2c1` was tested. Which Potency did it give?
A: inactive

Q: `C[C@@H](C(=O)NCc1ccco1)N1C(=O)N2CCc3c([nH]c4ccccc34)[C@@]2(C)C1=O` was tested. Which Potency did it give?
A: inconclusive [inhibitor, partial curve]

Q: For `O=C(Nc1ccc2c(c1)OCO2)c1cnc(Cl)c(Cl)c1`, which Potency is on record?
A: inconclusive [inhibitor, single point]

Q: With `Cc1cc(-c2cc(-c3ccc(Cl)cc3)on2)nc(NC2CCCC2)n1` as the compound, how does the Potency read?
A: inactive

Q: How did the Potency turn out when `C/C(=N\NC(=O)c1ccoc1C)c1ccccc1O` was run?
A: inconclusive [inhibitor, full curve, poor fit]

Q: For `CCCCc1nc(NCC2CCCO2)c(C#N)c2c1COC(C)(C)C2` (centres undefined), which Potency is on record?
A: inactive

Q: For `CCC(C(=O)Nc1cc(OC)ccc1OC)n1nc(-c2ccccc2)c2c(c1=O)CCCC2` (centres undefined), which Potency is on record?
A: active: 12.6 µM

Q: For `CCN(CC1CCCO1)C(=O)c1cc(COc2ccccc2SC)on1` (centres undefined), which Potency is on record?
A: inconclusive [inhibitor, partial curve]

Q: For `Cc1cc(S(=O)(=O)Nc2ccc(C(=O)NCC(c3ccco3)N3CCCCC3)cc2)ccc1F` (centres undefined), which Potency is on record?
A: inconclusive [inhibitor, partial curve, poor fit]

Q: For `Cn1c2ccccc2c2c(C(=O)N3CCN(c4cccc(C(F)(F)F)c4)CC3)cn(C3CCCCC3)c(=O)c21`, which Potency is on record?
A: inconclusive [inhibitor, single point]

Q: How did the Potency turn out when `CCOC(=O)c1nc(C)nc(Sc2n[nH]c(-c3cc(C(F)(F)F)cc(C(F)(F)F)c3)n2)c1C` was run?
A: inconclusive [inhibitor, single point]

Q: How did the Potency turn out when `CCOc1ccccc1CNC(=O)C1CCN(Cc2cc3ccccc3n2Cc2ccccc2)CC1` was run?
A: inconclusive [inhibitor, partial curve]

Q: With `CCC(C)NC(=O)c1cc(-c2cccs2)nc2ccccc12` (centres undefined) as the compound, how does the Potency read?
A: inconclusive [inhibitor, full curve]

Q: `CN1CCN(C(=O)c2ccc(-c3ccc(Br)cc3)o2)CC1` was tested. Which Potency did it give?
A: inconclusive [inhibitor, single point]

Q: How did the Potency turn out when `Cc1nc2cc(NS(=O)(=O)c3ccc(Br)cc3)ccc2n1C` was run?
A: inconclusive [inhibitor, partial curve, poor fit]

Q: With `Fc1ccc(Nc2nnc(C(F)(F)F)s2)cc1` as the compound, how does the Potency read?
A: inconclusive [inhibitor, single point]

Q: How did the Potency turn out when `CCCN1CCCc2cc(CN(CCCN3CCOCC3)C(=O)Nc3ccc(OCC)cc3)ccc21` was run?
A: inconclusive [inhibitor, partial curve, poor fit]

Q: How did the Potency turn out when `COc1ccc(N(CC(=O)N/N=C/c2ccc(F)cc2)S(=O)(=O)c2ccccc2)cc1` was run?
A: inconclusive [inhibitor, partial curve]

Q: `Cc1cccc(Cn2nnc3c(=O)[nH]c(C4CCCN(C(=O)c5ccc(C(C)(C)C)cc5)C4)nc32)c1` (centres undefined) was tested. Which Potency did it give?
A: inconclusive [inhibitor, single point]

Q: How did the Potency turn out when `CCN1CCCC1CN(Cc1cc2cc(C)cc(C)c2[nH]c1=O)C(=O)Nc1ccccc1OC` (centres undefined) was run?
A: inconclusive [inhibitor, single point]

Q: For `Clc1ccc(OCCn2c(-c3ccco3)nc3ccccc32)cc1`, which Potency is on record?
A: inconclusive [inhibitor, single point]

Q: With `COc1ccc(-c2cn[nH]c2-c2ccc(OCc3ccccc3F)cc2O)cc1OC` as the compound, how does the Potency read?
A: inconclusive [inhibitor, partial curve, poor fit]

Q: `O=S(=O)(NCc1ccc(Cl)cc1)NCc1ccccc1F` was tested. Which Potency did it give?
A: inconclusive [inhibitor, single point]

Q: How did the Potency turn out when `COCC1CCN(C(=O)c2ccc3oc(Cc4ccc(Cl)cc4)nc3c2)C1` (centres undefined) was run?
A: inconclusive [inhibitor, partial curve, poor fit]

Q: With `O=C(C(=O)N1CCCc2ccccc21)c1c[nH]c2ccccc12` as the compound, how does the Potency read?
A: inconclusive [inhibitor, partial curve, poor fit]

Q: Which Potency does the source give for `Cc1cc(NS(=O)(=O)c2ccc(NC(=O)C(c3ccccc3)c3ccccc3)cc2)no1` here?
A: inactive

Q: With `COc1ccc(-c2cc(C(=O)N3CCCCCC3)no2)cc1` as the compound, how does the Potency read?
A: inconclusive [inhibitor, partial curve, poor fit]

Q: How did the Potency turn out when `COc1ccc2cc(C(=O)N3CCN(C)CC3)[nH]c2c1` was run?
A: inconclusive [inhibitor, single point]

Q: `COc1ccc(-n2c(Cc3ccccc3)nnc2SCc2ccc([N+](=O)[O-])cc2)cc1` was tested. Which Potency did it give?
A: inconclusive [inhibitor, single point]

Q: `C/C(CC(=O)Nc1ccc(OCc2ccccc2)cc1)=N\NC(=O)C(=O)Nc1cccc(C)c1` was tested. Which Potency did it give?
A: inconclusive [inhibitor, single point]

Q: `CN(Cc1ccccc1)C(=O)c1[nH]cnc1C(=O)N[C@@H](Cc1ccccc1)C(=O)OCc1ccccc1` was tested. Which Potency did it give?
A: inconclusive [inhibitor, single point]

Q: `Cc1c(C(=O)NCc2ccc3c(c2)OCCO3)sc(=O)n1Cc1ccccc1C(F)(F)F` was tested. Which Potency did it give?
A: inconclusive [inhibitor, single point]

Q: For `Cc1ccc(C)c(NC2=C(c3ccc(C(F)(F)F)cc3)C(=O)c3ccccc32)c1`, which Potency is on record?
A: inactive

Q: Which Potency does the source give for `O=C(Cc1cccs1)NCc1ccc2c(c1)OCO2` here?
A: inactive

Q: For `O=[N+]([O-])c1ccc(NN=Cc2ccc(O)cc2O)nc1`, which Potency is on record?
A: inconclusive [inhibitor, partial curve]

Q: With `O=C(CN1CCCCC1)NCC1(c2ccccc2)CCCC1` as the compound, how does the Potency read?
A: inconclusive [inhibitor, single point]

Q: How did the Potency turn out when `CC(NS(=O)(=O)c1ccc(Br)cc1)c1ccccc1` (centres undefined) was run?
A: inconclusive [inhibitor, single point]

Q: How did the Potency turn out when `COc1ccc(C(=O)c2c(C)oc3ccc(O)cc23)cc1` was run?
A: inconclusive [inhibitor, single point]

Q: With `COc1ccccc1C(=O)NCCc1csc(-c2ccc(C(F)(F)F)cc2)n1` as the compound, how does the Potency read?
A: inconclusive [inhibitor, single point]

Q: Which Potency does the source give for `CCNC(=S)Nc1cc(C)ccn1` here?
A: inconclusive [inhibitor, single point]

Q: Which Potency does the source give for `CCOc1ccccc1N1CCN(C(=O)NCc2ccc(C)cc2)CC1` here?
A: inconclusive [inhibitor, partial curve, poor fit]

Q: Which Potency does the source give for `CC(=O)OC1COC(n2ccc3ccccc32)C(OC(C)=O)C1OC(C)=O` (centres undefined) here?
A: inconclusive [inhibitor, partial curve, poor fit]

Q: `CCN(C(=O)c1ccc(NC(=O)Cc2ccccc2)cc1)c1ccccc1` was tested. Which Potency did it give?
A: inconclusive [inhibitor, single point]

Q: `Cc1cccc(C)c1OC(=O)CCN1C(=O)C2C3C=CC(C4CC34)C2C1=O` (centres undefined) was tested. Which Potency did it give?
A: active: 7.08 µM

Q: For `COCc1cc(C)nc(SCC(=O)Nc2cc(C(F)(F)F)ccc2N2CCOCC2)c1C#N`, which Potency is on record?
A: inconclusive [inhibitor, full curve, poor fit]

Q: Which Potency does the source give for `CCc1ccc(Nc2cc(C(=O)NCCCN3CCOCC3)c3ccccc3n2)cc1` here?
A: inconclusive [inhibitor, partial curve, poor fit]

Q: For `O=C1CCC/C(=N/Nc2ccc(Cl)cc2)C1`, which Potency is on record?
A: inconclusive [inhibitor, partial curve]

Q: With `Cc1ccccc1-c1nnc(SCC(=O)Nc2c(C)n(C)n(-c3ccccc3)c2=O)o1` as the compound, how does the Potency read?
A: inactive

Q: For `Cc1occc1C(=O)Nc1ccc2ccccc2c1`, which Potency is on record?
A: inconclusive [inhibitor, single point]

Q: Which Potency does the source give for `CCOc1ccc(NS(=O)(=O)c2ccc3[nH]cc(C(=O)NCCc4ccccc4)c(=O)c3c2)cc1` here?
A: inactive

Q: Which Potency does the source give for `COc1ccc(OC)c(CN2C(=O)CSCC2(C)C(=O)NC(C)C)c1` (centres undefined) here?
A: inactive

Q: Which Potency does the source give for `O=C(CS(=O)(=O)c1ccccc1)Nc1ccc(Cl)cn1` here?
A: inactive

Q: For `CCN(c1ccccc1)S(=O)(=O)c1ccc(C(=O)Nc2cc(C)ccn2)cc1`, which Potency is on record?
A: inconclusive [inhibitor, partial curve, poor fit]

Q: How did the Potency turn out when `CC(=O)c1ccc(OC(=O)c2c(-c3ccccc3Cl)noc2C)cc1` was run?
A: inactive

Q: For `CCCCC1(Cc2ccc([N+](=O)[O-])cc2)C(=O)N(c2ccccc2)N(c2ccccc2)C1=O`, which Potency is on record?
A: inconclusive [inhibitor, single point]

Q: For `CCCC(C)C(=O)Nc1ccc(Cl)cn1` (centres undefined), which Potency is on record?
A: inconclusive [inhibitor, single point]

Q: With `Cc1cc(Cl)ccc1-c1nc(NCc2ccccc2)nc2ccsc12` as the compound, how does the Potency read?
A: inconclusive [inhibitor, partial curve, poor fit]

Q: Which Potency does the source give for `Cn1nc(C(=O)Nc2cccc(C(F)(F)F)c2)c2c1-c1ccccc1S(=O)(=O)C2` here?
A: inactive
